{
  "source": "the supplement of paper PMC11417369",
  "note": "The list shows a part of the results.",
  "data": [
    {"system": "PF3D7_0420300 AP2 domain 1 (GST-tagged)", "assay": "gcPBM binding intensity (ln(normalized median fluorescence intensity)); higher = stronger DNA binding", "procedure,_shortened": "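An Agilent 4 × 180k array of primer-extended double-stranded 36-bp intergenic genomic probes, with negative controls, was incubated for 1 h with GST-tagged P. falciparum DNA-binding domains expressed in E. coli. Alexa488 anti-GST antibody detected bound protein, scanned at 488 nm. Binding intensity is the highest Masliner-normalised natural-log median intensity across replicate spots of either probe orientation.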", "values": [
      {"sequence": "TTTATATTTTTTTTTGCACACTTTAAAAAAATATAT [CACACA_site1146]", "gcPBM binding intensity (ln)": 9.22},
      {"sequence": "TATATATTACATAAAACACACAAAAAAAAAATTAAA [CACACA_site3882]", "gcPBM binding intensity (ln)": 9.58},
      {"sequence": "AAATAAATTGAAGATACATGCATATTTTTTTTTTAT [TGCATGCA_site686]", "gcPBM binding intensity (ln)": 9.11},
      {"sequence": "GAATATTTATGATGAACTATTAATTAATTTTACATA [GTGCAC_negctrl_site353]", "gcPBM binding intensity (ln)": 8.91},
      {"sequence": "ATGTAGAGTAATAGTTGTACAAGGTGTATATCTCAT [XGTACX_site6370]", "gcPBM binding intensity (ln)": 9.56},
      {"sequence": "AATTAAATGTTTCTAAGATATACGACCAATGTATTT [CACACA_negctrl_site1694]", "gcPBM binding intensity (ln)": 9.06},
      {"sequence": "AATTAATGGGTACATACACACATATATACATACATA [CACACA_site742]", "gcPBM binding intensity (ln)": 9.63},
      {"sequence": "CATCAATGCTAATTATGTACTTACATAAATAACCCT [XGTACX_site968]", "gcPBM binding intensity (ln)": 9.2},
      {"sequence": "ATACCTAAAAAATATACACACATATATATAAATATA [CACACA_site2580]", "gcPBM binding intensity (ln)": 9.67},
      {"sequence": "TGTATTATCTCTTATGAACACACATTTTTATTTTCA [CACACA_site9107]", "gcPBM binding intensity (ln)": 9.51},
      {"sequence": "ATGTTAATTAATGAGGTGCATTGAATATTTCAATAA", "gcPBM binding intensity (ln)": 9},
      {"sequence": "ATAAATAAAACAACAGTGCAATAAAATTAGTTGAGG", "gcPBM binding intensity (ln)": 9.62},
      {"sequence": "TGGTAATACCCATACACACACACATACCCATATATA [CACACA_site5509]", "gcPBM binding intensity (ln)": 10.1},
      {"sequence": "TTTTTTATGAGGTGGTGTACTTTTTTTTTTTTCTTT [XGTACX_site8550]", "gcPBM binding intensity (ln)": 9.46},
      {"sequence": "CAAGAAACAGTGATACGTACACATATATATATATAT [XGTACX_site3229]", "gcPBM binding intensity (ln)": 9.6},
      {"sequence": "ATTAAAGAGAGACATCAACACACATACGTATGTATA [CACACA_site8393]", "gcPBM binding intensity (ln)": 9.54},
      {"sequence": "TTCAAATAAATAGTAGTGCATATTTATTAATGTAAA", "gcPBM binding intensity (ln)": 9.1},
      {"sequence": "TAATATATTATAAACACATGCACATTAATAATAACT [TGCATGCA_site708]", "gcPBM binding intensity (ln)": 9.44},
      {"sequence": "TATTTTTTAAAAAAACGTACAAACATAATAAAAATA [XGTACX_site1857]", "gcPBM binding intensity (ln)": 9.25},
      {"sequence": "ATATGAAACATGAAGGTGCATAATGTGTATATTTAT", "gcPBM binding intensity (ln)": 9.46},
      {"sequence": "ACATAAATATATTTTTCACACATCATTAGTTATGAA [CACACA_site4724]", "gcPBM binding intensity (ln)": 9.28},
      {"sequence": "TATATATATATATATGTGCACATTTTATTAAAATGT", "gcPBM binding intensity (ln)": 9.19},
      {"sequence": "ATAGACATTTTACTTTGTACATATAAACATATATAT [XGTACX_site2733]", "gcPBM binding intensity (ln)": 9.25},
      {"sequence": "AAACTATACCAAAACACACATACAAAATATAAAAAA [CACACA_site2707]", "gcPBM binding intensity (ln)": 9.81},
      {"sequence": "ATTTTCAAATTATCAGATGAATCTTTTTAAGATCTT [XGTACX_negctrl_site598]", "gcPBM binding intensity (ln)": 8.68},
      {"sequence": "CTCATATATAACACATGTACACAGATTTTGCAAATG [XGTACX_site6879]", "gcPBM binding intensity (ln)": 9.32},
      {"sequence": "GGGAAAAAATGAGGTCGTACATTTTTCATCACAAAT [XGTACX_site8920]", "gcPBM binding intensity (ln)": 9.2},
      {"sequence": "TTTTTTTTTTTTTTTTTACACACTGCATACAAGAAA [CACACA_site3026]", "gcPBM binding intensity (ln)": 8.95},
      {"sequence": "GTCTGCATATGGATACGTACACATATATATTAATGT [XGTACX_site2260]", "gcPBM binding intensity (ln)": 9.48},
      {"sequence": "AATGAATGTACATACGCATGTACTTGACTAAATTAT [TGCATGCA_site436]", "gcPBM binding intensity (ln)": 9.23},
      {"sequence": "TATATAATACGAATTTGTACATATTAAATAAATTAT [XGTACX_site93]", "gcPBM binding intensity (ln)": 9.11},
      {"sequence": "GTTAGTTTTAGTTCATGTACATAATAGAAAATATAT [XGTACX_site7125]", "gcPBM binding intensity (ln)": 9.2},
      {"sequence": "AAGGTATGATTAATCACACACATAAATATAAATACA [CACACA_site5464]", "gcPBM binding intensity (ln)": 9.56},
      {"sequence": "AAGCTTCATTAATATACACACATATATGTGTATATT [CACACA_site7693]", "gcPBM binding intensity (ln)": 9.55},
      {"sequence": "AATAAAGAAGAAGAAAGTACACATTTCACAAAGGGG [XGTACX_site1308]", "gcPBM binding intensity (ln)": 9.54},
      {"sequence": "GATATATGTATAATAACGCACACTACAAAAATAAAA [CACACA_site2100]", "gcPBM binding intensity (ln)": 9.55},
      {"sequence": "ATAAAATATAGGTATGCACACACATATACTTCTGTG [CACACA_site8398]", "gcPBM binding intensity (ln)": 9.66},
      {"sequence": "ATATATATATATATATGTACATATTTTTTATTTTAT [XGTACX_site5761]", "gcPBM binding intensity (ln)": 9.19},
      {"sequence": "TATTATTCAAATAAAAGAAAAATATATATATTATAT [GTGCAC_negctrl_site273]", "gcPBM binding intensity (ln)": 8.98},
      {"sequence": "ATATGTTACTTTACATAAAGAAGAAGAAGAAGAAAA [CACACA_negctrl_site985]", "gcPBM binding intensity (ln)": 9.07},
      {"sequence": "TTTCAAAAAGGAAGAAAAAAAAAAAAAAAAAATATA [XGTACX_negctrl_site514]", "gcPBM binding intensity (ln)": 9.01},
      {"sequence": "TCCCCCTTTTTTTGATTTTTATCTTAATTCTAAAAG [GTGCAC_negctrl_site541]", "gcPBM binding intensity (ln)": 9.24},
      {"sequence": "AAAAAAAAAAAAAACACACACACACCCAAATACATA [CACACA_site708]", "gcPBM binding intensity (ln)": 9.87},
      {"sequence": "TTTTTTCTTTTCAAGGTGCTTTATAAGAAAAAGGGA [GTGCAC_site9858]", "gcPBM binding intensity (ln)": 8.59},
      {"sequence": "TATATTAAAACAAGCACACAATCGCATAATATCCTT [CACACA_site3210]", "gcPBM binding intensity (ln)": 9.65}
    ]}
  ]
}
